Assay results taken from a collection of fitness landscapes (doi:10.1016/j.celrep.2020.107928).
Whole data set: some 81,000 sequences, median “one-hybrid fitness for binding parS DNA” near -0.17, cut for the highest 2% near 0.51. The list shows a part of the results.

B1: Caulobacter ParB omega fusion; a variant is named by its letters at X, in order, B8GW30 (parent)
chain: MESVVVGEPGMSEGRRGLGRGLSALLGEVDAAPAQAPGEQLGGSREAPIEILQRNPDQPRRTFREEDLEDLSNSIREKGVLQPILVRPSPDTAGEYQIVAGERAWRAAQRAGLKTVPIMVRELDDLAVLEIGIIENVQRADLNVLEEALSYKVLMEKFERTQENIAQTIGKSXSHVANXMRLLXLPDEVQSYLVSGELTAXHARAIAAAADPVALAKQIIEGGLSVRETEALARKAPNLSAGKSKGGRPPRVKDTDTQALESDLSSVLGLDVSIDHRGSTGTLTITYATLEQLDDLCNRLTRGI

Variants of: B1
Assay: one-hybrid fitness for binding parS DNA (scaled: cognate 1, non-cognate 0); higher = stronger binding
Details: with parS DNA site
In short: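 Fitness is the rescaled log change in variant-to-wild-type read ratio, measured by Illumina sequencing of plasmids before and after bacterial one-hybrid selection. The scale puts cognate at 1 and non-cognate at 0. Selection of Caulobacter ParB libraries, four specificity codons randomised, took place in E. coli USO with a HIS3 reporter, site 19 bp from the promoter, over 48 hours at 37°C on M9-minus-histidine with 0.1 mM IPTG and 5 mM 3-AT.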

one-hybrid fitness for binding parS DNA, 0.613:
RNEC

one-hybrid fitness for binding parS DNA, 0.43:
RLTN
RQTN

one-hybrid fitness for binding parS DNA, 0.393:
RQYN

one-hybrid fitness for binding parS DNA, 0.377:
RKYY

one-hybrid fitness for binding parS DNA, 0.249:
RSTF

one-hybrid fitness for binding parS DNA, 0.39:
ILYC

one-hybrid fitness for binding parS DNA, 0.354:
RFDN

one-hybrid fitness for binding parS DNA, ≤ 0.2:
KYCR
IEHT
LLTD
SVYT
LVHN
WARR
VRPD
RVHW
NSFG
CVQS
SRRQ
CRFV
AHHL
QYDR
MAAG
IVAE
MNRT
PQLI
MIPK
WRGE
QETV
QYQV
YKTR
DPES
QTLK
GLPI
KHGS
AASK
KKVS
DNMK
PASG
GVAA
GPRW
NDTN
VHPG
TQWS
ATNA
AYSM
MNAC
ERVY
GTGS
PMCP
SRKC
PILY
CVSY
ENSV
PVSQ
FQFS
CCWY
TLDL
RMGV
NHFG
TQKH
QCVF
LSHT
PCVT
QRRN
VITH
QETS
ISLT
MTLV
HIDS
KRHS
FNKR
TRRK
GRVG
TLTE
HMQP
QTKQ
VMFR
AAWS
PYHR
DMWS
EQMR
TNED
FPCC
LATW
KDHR
VVVF
CNTV
PEVR
RWCD
LRAS
DPWS
RHSH
MDNG
WRKG
EAVG
QVFG
GVNT
IAPH
ALEW
PYAT
CREE
TCEG
RGGL
PVWW
NFHF
NHLA
TDDD
VVAG
PKQR
NCVD
LLIT
GDNI
TRMG
KWMG
LPTV
QGVS
NTWG
RHHQ
KTKS
SYIV
PGNC
NKLS
LKPE
LALP
VAFA
PYAS
YRHW
WQAR
DCDD
WRVA
TFGC
CHHF
DGMR
KVAV
CSKY
TAPH
NADD
MQPR
WSPY
SCHC
GSVE
QHAY
MSPT
PVRL
YDNV
TSCN
MPIL
TSKV
RGDN
LGIF
YLGR
HSVC
